Results published in the supplement of paper PMC12217912.
The list shows a part of the results. The full chains were built here from the parent and the listed change. Inactive controls read about 0.05.

B1: TEV protease; numbered along this chain (parent)
chain: MGESLFKGPRDYNPISSSICHLTNESDGHTTSLYGIGFGPFIITNKHLFRRNNGTLVVQSLHGVFKVKDTTTLQQHLVDGRDMIIIRMPKDFPPFPQKLKFREPQREERICLVTTNFQTKSMSSMVSDTSCTFPSGDGIFWKHWIQTKDGQCGSPLVSTRDGFIVGIHSASNFTNTNNYFTSVPKNFMELLTNQEAQQWVSGWRLNADSVLWGGHKVFMVKPEEPFQPVKEATQL

Variants of: B1
Assay: raw area under fraction-flipped curve 0-4 h after induction (AUC4h, not background-subtracted), DNA-recorder readout of cleavage of the substrate (dimensionless); higher = more cleavage of the substrate by the protease variant
Conditions: temperature: 34 °C; time window: 0-4 h after rhamnose induction
Protocol: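 In vivo DNA recorder in E. coli TOP10(DE3) ΔrhaA at 34 °C. Each TEVp single-site mutant (parent TEVp 0) is paired with a single-site variant of the 7-mer TEVs (canonical ENLYFQ|S). The substrate sits between flexible linkers in a Bxb1-sfGFP-TEVs-SsrA fusion, so cleavage stabilises Bxb1 and speeds flipping of a recombination array, read by NGS. The value is the raw area under the fraction-flipped curve over 0-4 h after rhamnose induction (AUC4h), with ≥20 reads per time point. It is not background-subtracted; inactive controls average about 0.047.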
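Further: Bxb1 expression induced with 0.2% (w/v) L-rhamnose at OD600 near 0.5, cultures sampled hourly, flipped fraction per protease–substrate barcode pair counted by paired-end Illumina sequencing.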

Variant | area with substrate ANLYFQS | area with substrate DNLYFQS | area with substrate GNLYFQS | area with substrate HNLYFQS | area with substrate INLYFQS | area with substrate KNLYFQS | area with substrate LNLYFQS | area with substrate MNLYFQS | area with substrate NNLYFQS | area with substrate PNLYFQS | area with substrate SNLYFQS | area with substrate TNLYFQS | area with substrate WNLYFQS | area with substrate YNLYFQS | area with substrate CNLYFQS | area with substrate QNLYFQS | area with substrate RNLYFQS | area with substrate VNLYFQS | area with substrate FNLYFQS
MGESLFKGPRDYNPISSSICHLTNESDGHTTSLYGIGFGPFIITNKHLFRRNNGTLVVQSLHGVFKVKDTTTLQQHLVDGRDMIIIRMPKDFPPFPQKLKFREPQREERICLVTTNFQTKSMSEMVSDTSCTFPSGDGIFWKHWIQTKDGQCGSPLVSTRDGFIVGIHSASNFTNTNNYFTSVPKNFMELLTNQEAQQWVSGWRLNADSVLWGGHKVFMVKPEEPFQPVKEATQL [S124E] | 0.062 | 0.075 | 0.0601 | 0.0269 | 0.0655 | 0.0681 | 0.0497 | 0.0705 | 0.0686 | 0.0887 | 0.063 | 0.0779 | 0.0426 | 0.0656 |  |  |  |  | 
MGESLFKGPRDYNPISSSICHLTNESDGHTTSLYGIGFGPFIITNKHLFRRNNGTLVVQSLHGVFKVKDTTTLQQHLVDGRDMIIIRMPKDFPPFPQKLKFREPQREERICLVTTNFQTKSMSDMVSDTSCTFPSGDGIFWKHWIQTKDGQCGSPLVSTRDGFIVGIHSASNFTNTNNYFTSVPKNFMELLTNQEAQQWVSGWRLNADSVLWGGHKVFMVKPEEPFQPVKEATQL [S124D] | 0.0665 |  | 0.0633 |  | 0.0642 |  |  | 0.0582 | 0.0696 | 0.0637 |  | 0.0658 | 0.0548 | 0.0615 | 0.0684 |  |  |  | 
MGESLFKGPRDYNPISSSICHLTNESDGHTTSLYGIGFGPFIITNKHLFRRNNGTLVVQSLHGVFKVKDTTTLQQHLVDGRDMIIIRMPKDFPPFPQKLKFREPQREERICLVTTNFQTKSMSQMVSDTSCTFPSGDGIFWKHWIQTKDGQCGSPLVSTRDGFIVGIHSASNFTNTNNYFTSVPKNFMELLTNQEAQQWVSGWRLNADSVLWGGHKVFMVKPEEPFQPVKEATQL [S124Q] | 0.0618 |  |  | 0.0653 | 0.0693 |  | 0.128 |  | 0.0666 | 0.0665 |  | 0.0634 | 0.0568 | 0.0714 | 0.0766 | 0.0773 | 0.0569 |  | 
MGESLFKGPRDYNPISSSICHLTNESDGHTTSLYGIGFGPFIITNKHLFRRNNGTLVVQSLHGVFKVKDTTTLQQHLVDGRDMIIIRMPKDFPPFPQKLKFREPQREERICLVTTNFQTKSMSMMVSDTSCTFPSGDGIFWKHWIQTKDGQCGSPLVSTRDGFIVGIHSASNFTNTNNYFTSVPKNFMELLTNQEAQQWVSGWRLNADSVLWGGHKVFMVKPEEPFQPVKEATQL [S124M] | 0.0756 |  | 0.0635 | 0.0668 |  | 0.0816 |  | 0.0601 | 0.0589 | 0.0581 | 0.0591 | 0.0618 |  | 0.0629 | 0.0971 |  | 0.0445 | 0.0927 | 
MGESLFKGPRDYNPISSSICHLTNESDGHTTSLYGIGFGPFIITNKHLFRRNNGTLVVQSLHGVFKVKDTTTLQQHLVDGRDMIIIRMPKDFPPFPQKLKFREPQREERICLVTTNFQTKLMSSMVSDTSCTFPSGDGIFWKHWIQTKDGQCGSPLVSTRDGFIVGIHSASNFTNTNNYFTSVPKNFMELLTNQEAQQWVSGWRLNADSVLWGGHKVFMVKPEEPFQPVKEATQL [S121L] | 0.0535 |  |  | 0.0547 | 0.0819 |  | 0.0646 | 0.0539 | 0.0636 | 0.0667 | 0.0695 | 0.0643 | 0.0523 | 0.0634 | 0.0724 |  |  |  | 0.0616
MGESLFKGPRDYNPISSSICHLTNESDGHTTSLYGIGFGPFIITNKHLFRRNNGTLVVQSLHGVFKVKDTTTLQQHLVDGRDMIIIRMPKDFPPFPQKLKFREPQREERICLVTTNFQTKDMSSMVSDTSCTFPSGDGIFWKHWIQTKDGQCGSPLVSTRDGFIVGIHSASNFTNTNNYFTSVPKNFMELLTNQEAQQWVSGWRLNADSVLWGGHKVFMVKPEEPFQPVKEATQL [S121D] | 0.0798 | 0.0914 |  | 0.0097 | 0.095 | 0.0576 | 0.0675 | 0.0735 | 0.0445 | 0.0679 | 0.0499 | 0.0595 |  | 0.057 |  |  |  | 0.0928 | 
MGESLFKGPRDYNPISSSICHLTNESDGHTTSLYGIGFGPFIITNKHLFRRNNGTLVVQSLHGVFKVKDTTTLQQHLVDGRDMIIIRMPKDFPPFPQKLKFREPQREERICLVTTNFQTKVMSSMVSDTSCTFPSGDGIFWKHWIQTKDGQCGSPLVSTRDGFIVGIHSASNFTNTNNYFTSVPKNFMELLTNQEAQQWVSGWRLNADSVLWGGHKVFMVKPEEPFQPVKEATQL [S121V] | 0.0456 |  | 0.0333 | 0.0371 | 0.0579 | 0.0762 | 0.064 |  | 0.0621 | 0.0755 | 0.0703 | 0.0796 |  | 0.0608 | 0.0736 |  |  |  | 0.0616
MGESLFKGPRDYNPISSSICHLTNESDGHTTSLYGIGFGPFIITNKHLFRRNNGTLVVQSLHGVFKVKDTTTLQQHLVDGRDMIIIRMPKDFPPFPQKLKFREPQREERICLVTTNFSTKSMSSMVSDTSCTFPSGDGIFWKHWIQTKDGQCGSPLVSTRDGFIVGIHSASNFTNTNNYFTSVPKNFMELLTNQEAQQWVSGWRLNADSVLWGGHKVFMVKPEEPFQPVKEATQL [Q118S] | 0.0539 |  | 0.0602 |  | 0.0482 |  |  |  | 0.0624 | 0.0678 |  | 0.0458 |  | 0.0597 | 0.061 |  |  | 0.087 | 
MGESLFKGPRDYNPISSSICHLTNESDGHTTSLYGIGFGPFIITNKHLFRRNNGTLVVQSLHGVFKVKDTTTLQQHLVDGRDMIIIRMPKDFPPFPQKLKFREPQREERICLVTTNFQTKSMVSMVSDTSCTFPSGDGIFWKHWIQTKDGQCGSPLVSTRDGFIVGIHSASNFTNTNNYFTSVPKNFMELLTNQEAQQWVSGWRLNADSVLWGGHKVFMVKPEEPFQPVKEATQL [S123V] | 0.0679 | 0.0644 | 0.069 | 0.0576 | 0.0766 | 0.0778 | 0.0753 |  | 0.0695 | 0.0724 | 0.0535 | 0.0505 | 0.0639 |  |  |  |  |  | 
